Results: article PMC13083723 (Patterns, 2026)
About 190 (3.5%) of roughly 5,400 compounds showed an effect of 50% or more. This is one part of the list.

What follows are compounds tested on Vero-E6 (assay: primary screen, phospholipidosis by LipidTOX staining; higher = more effect of the substance). Conditions: 10 µM.
Procedure, shortened: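 Drug-induced phospholipidosis detected with HCS LipidTOX Red reagent in Vero-E6 cells. Compounds tested at 10 μM, with amiodarone (10 μM) as positive control and DMSO (0.1 v/v %) as vehicle.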

SMILES	result_ITMP [%]
CC1CCC(NC(=O)N(CCCl)N=O)CC1 (stereo not drawn)	15.3
CN[C@@H](C)C(=O)N[C@H](C(=O)N1CCC[C@H]1C(=O)Nc1snnc1-c1ccccc1)C1CCCCC1	-3.7
O=C(O)C(Cc1ccccc1)NCc1ccc(Cl)cc1 (stereo not drawn)	-4.97
O=C(O)c1ccccc1NCCc1ccccc1	-4.6
CC(C)(O)CC[C@@H](O)[C@](C)(O)[C@H]1CC[C@@]2(O)C3=CC(=O)[C@@H]4C[C@@H](O)[C@@H](O)C[C@]4(C)[C@H]3CC[C@]12C	-4.97
CC(=O)[C@H]1CC[C@H]2[C@@H]3CCC4=CC(=O)CC[C@]4(C)[C@H]3[C@H](O)C[C@]12C	1.58
COC(=O)C(c1ccccc1)C1CCCCN1 (stereo not drawn)	10.3
CNC(=O)c1nn(C)c2c1C(C)(C)Cc1cnc(Nc3ccc(N4CCN(C)CC4)cc3)nc1-2	54.6
CC(=O)NC(C(=O)O)C(C)(C)SN=O (stereo not drawn)	-3.03
O=S(=O)([O-])Oc1ccc(C(c2ccc(OS(=O)(=O)[O-])cc2)c2ccccn2)cc1	-7.14
Nc1ccc(S(=O)(=O)Nc2ccc(Cl)nn2)cc1	-2.24
c1ccc(C2CN3CCSC3=N2)cc1 (stereo not drawn) [R4A_0001404_001 / SPE_A46393198]	3.95
Cc1ccc(/C=N/NC(=O)c2ccccc2Oc2ccccc2)o1	-3.82
C=C[C@H]1C[N@]2CC[C@H]1C[C@@H]2[C@@H](O)c1ccnc2ccc(OC)cc12	11.5
O=S(=O)(Cc1ccccc1)Nc1ccc(-c2ccc3c(cnn3-c3ccc(F)cc3)c2)c(C(F)(F)F)c1	-1.55
O=C1/C(=C\c2ccccc2)C[C@@]2(O)C3Cc4ccc(O)c5c4[C@@]2(CCN3CC2CC2)[C@H]1O5	-2.69
CC(C)NCCN(C(C)C)S(=O)(=O)c1ccc(Cl)cc1Cl	28.4
FC(F)(F)c1ccc(/C=C/c2nc(COc3ccc(CCCCn4ccnn4)cc3)co2)cc1	0.58
Nc1ccn(C[C@@H](CO)OCP(=O)(O)O)c(=O)n1	-10.2
CN1CCCC(CN2c3ccccc3Sc3ccccc32)C1 (stereo not drawn)	42.2
CCC(C)(C)C(=O)C(=O)N1CCC[C@H]1C(=O)OCCCc1cccnc1	0.06
O=C1c2c(O)cc(O)cc2O[C@H](c2ccc(O)c(O)c2)[C@H]1O	-4.56
CCCC(=O)C1(c2ccccc2)CCN(C(=O)[C@@H](Cc2ccc(OC)cc2)NC(=O)[C@@H](N)Cc2cncn2C)CC1	-0.56
COc1ccc(Nc2nccc(NCCO)n2)cc1	-0.65
CC(=O)OCC1=C(C(=O)O)N2C(=O)[C@@H](N)[C@H]2SC1	6.22
CN(C)CCCOc1nn(Cc2ccccc2)c2ccccc12	51.2
CCc1nc(C(N)=O)c(Nc2ccc(N3CCC(N4CCN(C)CC4)CC3)c(OC)c2)nc1NC1CCOCC1	1.5

SMILES	result_ITMP [%]
Cn1cc(C(=O)OCC2CCN(CCNS(C)(=O)=O)CC2)c2ccccc21	0.77
O=C(O)COc1cccc(-c2ocnc2-c2nc(-c3ccccc3)c(-c3ccccc3)o2)c1	-2.06
S=C=Nc1ccc(N=C=S)cc1	-2.11
O=C(O)COc1nn(Cc2ccccc2)c2ccccc12	0
C[C@@H](CN1CCC(n2c(=O)[nH]c3cc(Cl)ccc32)CC1)NC(=O)c1ccc2ccccc2c1	41.4
CNS(=O)(=O)Nc1nccc(Cc2c(C)c3ccc(Oc4ncccn4)cc3oc2=O)c1F	0.77
CCCCCn1cc(C(=O)NC23CC4CC(CC(C4)C2)C3)c(=O)c2cc(-c3ccccc3)ccc21	-2.74
CCCCC(=O)O[C@]1(C(=O)CO)[C@@H](C)C[C@H]2[C@@H]3CCC4=CC(=O)C=C[C@]4(C)[C@@]3(F)[C@@H](O)C[C@@]21C	-2.17
CO[C@]12C[C@@H](COC(=O)c3cncc(Br)c3)CN(C)[C@@H]1Cc1cn(C)c3cccc2c13	-1.13
COc1cc(C(=O)N2CCOCC2)cc(OC)c1OC	-5.33
CC(=O)OCC(=O)[C@@]1(O)CC[C@H]2[C@@H]3CCC4=CC(=O)C=C[C@]4(C)[C@@]3(F)[C@@H](O)C[C@@]21C	-9.79
C=C1/C(=C/C=C2\CCC[C@]3(C)[C@@H]([C@H](C)/C=C/[C@@H](C)C(C)C)CC[C@@H]23)C[C@@H](O)C[C@@H]1O	-2.6
Cc1ccc(S(=O)(=O)NC2c3ccccc3Oc3ccccc32)cc1	-4.31
CC(C)(C)c1cc(C(=O)/C=C/c2ccc(C(=O)O)cc2)cc(C(C)(C)C)c1	-7.64
Cc1ccc(-c2n[nH]c3c2C(c2cccc(O)c2)N(c2ccc(C(=O)O)cc2)C3=O)cc1 (stereo not drawn)	0.62
CC(C)(C)c1ccc(CN(Cc2cccc(OCC(=O)O)c2)S(=O)(=O)c2cccnc2)cc1	-1.66
CC(=O)Nc1ccc(S(=O)(=O)Nc2ccc([N+](=O)[O-])cc2)cc1	4.56
CCC(=O)[C@@]1(C)[C@H](C)C[C@H]2[C@@H]3CCC4=CC(=O)C=C[C@]4(C)[C@H]3[C@@H](O)C[C@@]21C	-10.8
CCc1cc(C(N)=S)ccn1	-1.5
NC(Cn1ccc(=O)n(Cc2ccccc2C(=O)O)c1=O)C(=O)O (stereo not drawn)	-0.37
OCC(Br)(Br)Br	-4.8
COc1cc(OC)c(/C=C2/C(=O)Nc3ccccc32)c(OC)c1	2.33
OCc1ccc(O[C@@H]2O[C@H](CO)[C@@H](O)[C@H](O)[C@H]2O)cc1	-6.61
O=C(NC(NC(=S)Nc1ccc(F)c([N+](=O)[O-])c1)C(Cl)(Cl)Cl)C(c1ccccc1)c1ccccc1 (stereo not drawn)	38
CN(C)c1cccc(Oc2cnc(Nc3cccc(O)c3)nc2)c1	-4.33
CC[C@H](C)[C@@H]([C@@H](CC(=O)N1CCC[C@H]1[C@H](OC)[C@@H](C)C(=O)N[C@@H](Cc1ccccc1)c1nccs1)OC)N(C)C(=O)[C@@H](NC(=O)[C@H](C(C)C)N(C)C)C(C)C	19
Oc1cc(CNC(=S)/C=C/c2cc(O)c(O)c(Br)c2)cc(O)c1O	1.59
